Results reported in patent US20210238308A1 (Chugai, published 2021).

T1: PRYSPRY domain of human TRIM21 with N-terminal 6xHis tag (human)
T1 construct: Expressed in E. coli; also called hTRIM21; human TRIM21.PRYSPRY
T1 chain: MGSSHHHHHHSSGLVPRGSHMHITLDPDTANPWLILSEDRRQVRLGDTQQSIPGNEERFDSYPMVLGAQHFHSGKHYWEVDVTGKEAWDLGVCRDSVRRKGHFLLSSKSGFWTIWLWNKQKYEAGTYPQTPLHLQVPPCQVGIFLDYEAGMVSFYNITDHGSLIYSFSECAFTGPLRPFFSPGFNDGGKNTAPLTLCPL

T2: PRYSPRY domain of mouse TRIM21 with N-terminal 6xHis tag (mouse)
T2 construct: Expressed in E. coli; also called mTRIM21; mouse TRIM21.PRYSPRY
T2 chain: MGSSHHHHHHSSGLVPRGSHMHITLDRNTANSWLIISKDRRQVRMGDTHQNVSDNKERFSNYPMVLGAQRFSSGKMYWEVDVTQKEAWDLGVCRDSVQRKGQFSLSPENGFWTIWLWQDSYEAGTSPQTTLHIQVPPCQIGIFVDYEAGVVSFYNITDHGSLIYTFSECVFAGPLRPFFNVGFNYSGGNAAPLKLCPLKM


Key:
Experiment in all cases: SPR, Protein L capture
[1] = biological target: T1, PRYSPRY domain of human TRIM21 with …
[2] = biological target: T3, human FcRn (human, UniProt P55899 partial chain; P61769 partial chain, limits assumed)
T3 construct: also called hFcRn

[3] = biological target: T2, PRYSPRY domain of mouse TRIM21 with …

hTRIM21 binding level ratio (variant/control antibody) [1]	hFcRn binding level ratio (variant/control antibody) [2]	mTRIM21 binding level ratio (variant/control antibody) [3]	Binder
1.22	0.15	2.82	MRAH-G1d/MRAL-KT0 Q311Y (antibody, human IgG1, kappa, copies: 2 + 2) heavy: QVQLQESGPGLVRPSQTLSLTCTVSGYSITSDHAWSWVRQPPGRGLEWIGYISYSGITTYNPSLKSRVTMLRDTSKNQFSLRLSSVTAADTAVYYCARSLARTTAMDYWGQGSLVTVSS[human IgG1 constant region with Q311Y (EU numbers) omitted here] light: DIQMTQSPSSLSASVGDRVTITCRASQDISSYLNWYQQKPGKAPKLLIYYTSRLHSGVPSRFSGSGSGTDFTFTISSLQPEDIATYYCQQGNTLPYTFGQGTKVEIKRTVAAPSVFIFPPSDEQLKSGTASVVCLLNNFYPREAKVQWKVDNALQSGNSQESVTEQDSKDSTYSLSSTLTLSKADYEKHKVYACEVTHQGLSSPVTKSFNRGEC
1.01	0.96	2.41	MRAH-G1d/MRAL-KT0 T437A (antibody, human IgG1, kappa, copies: 2 + 2) heavy: QVQLQESGPGLVRPSQTLSLTCTVSGYSITSDHAWSWVRQPPGRGLEWIGYISYSGITTYNPSLKSRVTMLRDTSKNQFSLRLSSVTAADTAVYYCARSLARTTAMDYWGQGSLVTVSS[human IgG1 constant region with T437A (EU numbers) omitted here] light: DIQMTQSPSSLSASVGDRVTITCRASQDISSYLNWYQQKPGKAPKLLIYYTSRLHSGVPSRFSGSGSGTDFTFTISSLQPEDIATYYCQQGNTLPYTFGQGTKVEIKRTVAAPSVFIFPPSDEQLKSGTASVVCLLNNFYPREAKVQWKVDNALQSGNSQESVTEQDSKDSTYSLSSTLTLSKADYEKHKVYACEVTHQGLSSPVTKSFNRGEC
1.34	0.91	2.19	MRAH-G1d/MRAL-KT0 T437D (antibody, human IgG1, kappa, copies: 2 + 2) heavy: QVQLQESGPGLVRPSQTLSLTCTVSGYSITSDHAWSWVRQPPGRGLEWIGYISYSGITTYNPSLKSRVTMLRDTSKNQFSLRLSSVTAADTAVYYCARSLARTTAMDYWGQGSLVTVSS[human IgG1 constant region with T437D (EU numbers) omitted here] light: DIQMTQSPSSLSASVGDRVTITCRASQDISSYLNWYQQKPGKAPKLLIYYTSRLHSGVPSRFSGSGSGTDFTFTISSLQPEDIATYYCQQGNTLPYTFGQGTKVEIKRTVAAPSVFIFPPSDEQLKSGTASVVCLLNNFYPREAKVQWKVDNALQSGNSQESVTEQDSKDSTYSLSSTLTLSKADYEKHKVYACEVTHQGLSSPVTKSFNRGEC
0.178	0.24	1.44	MRAH-G1d/MRAL-KT0 Y436D (antibody, human IgG1, kappa, copies: 2 + 2) heavy: QVQLQESGPGLVRPSQTLSLTCTVSGYSITSDHAWSWVRQPPGRGLEWIGYISYSGITTYNPSLKSRVTMLRDTSKNQFSLRLSSVTAADTAVYYCARSLARTTAMDYWGQGSLVTVSS[human IgG1 constant region with Y436D (EU numbers) omitted here] light: DIQMTQSPSSLSASVGDRVTITCRASQDISSYLNWYQQKPGKAPKLLIYYTSRLHSGVPSRFSGSGSGTDFTFTISSLQPEDIATYYCQQGNTLPYTFGQGTKVEIKRTVAAPSVFIFPPSDEQLKSGTASVVCLLNNFYPREAKVQWKVDNALQSGNSQESVTEQDSKDSTYSLSSTLTLSKADYEKHKVYACEVTHQGLSSPVTKSFNRGEC
0.01	0.59	0.191	MRAH-G1d/MRAL-KT0 Y436E (antibody, human IgG1, kappa, copies: 2 + 2) heavy: QVQLQESGPGLVRPSQTLSLTCTVSGYSITSDHAWSWVRQPPGRGLEWIGYISYSGITTYNPSLKSRVTMLRDTSKNQFSLRLSSVTAADTAVYYCARSLARTTAMDYWGQGSLVTVSS[human IgG1 constant region with Y436E (EU numbers) omitted here] light: DIQMTQSPSSLSASVGDRVTITCRASQDISSYLNWYQQKPGKAPKLLIYYTSRLHSGVPSRFSGSGSGTDFTFTISSLQPEDIATYYCQQGNTLPYTFGQGTKVEIKRTVAAPSVFIFPPSDEQLKSGTASVVCLLNNFYPREAKVQWKVDNALQSGNSQESVTEQDSKDSTYSLSSTLTLSKADYEKHKVYACEVTHQGLSSPVTKSFNRGEC
1.08	0.91	2.47	MRAH-G1d/MRAL-KT0 Y436F (antibody, human IgG1, kappa, copies: 2 + 2) heavy: QVQLQESGPGLVRPSQTLSLTCTVSGYSITSDHAWSWVRQPPGRGLEWIGYISYSGITTYNPSLKSRVTMLRDTSKNQFSLRLSSVTAADTAVYYCARSLARTTAMDYWGQGSLVTVSS[human IgG1 constant region with Y436F (EU numbers) omitted here] light: DIQMTQSPSSLSASVGDRVTITCRASQDISSYLNWYQQKPGKAPKLLIYYTSRLHSGVPSRFSGSGSGTDFTFTISSLQPEDIATYYCQQGNTLPYTFGQGTKVEIKRTVAAPSVFIFPPSDEQLKSGTASVVCLLNNFYPREAKVQWKVDNALQSGNSQESVTEQDSKDSTYSLSSTLTLSKADYEKHKVYACEVTHQGLSSPVTKSFNRGEC
0.101	0.51	1.69	MRAH-G1d/MRAL-KT0 Y436G (antibody, human IgG1, kappa, copies: 2 + 2) heavy: QVQLQESGPGLVRPSQTLSLTCTVSGYSITSDHAWSWVRQPPGRGLEWIGYISYSGITTYNPSLKSRVTMLRDTSKNQFSLRLSSVTAADTAVYYCARSLARTTAMDYWGQGSLVTVSS[human IgG1 constant region with Y436G (EU numbers) omitted here] light: DIQMTQSPSSLSASVGDRVTITCRASQDISSYLNWYQQKPGKAPKLLIYYTSRLHSGVPSRFSGSGSGTDFTFTISSLQPEDIATYYCQQGNTLPYTFGQGTKVEIKRTVAAPSVFIFPPSDEQLKSGTASVVCLLNNFYPREAKVQWKVDNALQSGNSQESVTEQDSKDSTYSLSSTLTLSKADYEKHKVYACEVTHQGLSSPVTKSFNRGEC
-0.071	0.22	-0.226	MRAH-G1d/MRAL-KT0 Y436K (antibody, human IgG1, kappa, copies: 2 + 2) heavy: QVQLQESGPGLVRPSQTLSLTCTVSGYSITSDHAWSWVRQPPGRGLEWIGYISYSGITTYNPSLKSRVTMLRDTSKNQFSLRLSSVTAADTAVYYCARSLARTTAMDYWGQGSLVTVSS[human IgG1 constant region with Y436K (EU numbers) omitted here] light: DIQMTQSPSSLSASVGDRVTITCRASQDISSYLNWYQQKPGKAPKLLIYYTSRLHSGVPSRFSGSGSGTDFTFTISSLQPEDIATYYCQQGNTLPYTFGQGTKVEIKRTVAAPSVFIFPPSDEQLKSGTASVVCLLNNFYPREAKVQWKVDNALQSGNSQESVTEQDSKDSTYSLSSTLTLSKADYEKHKVYACEVTHQGLSSPVTKSFNRGEC
0.343	1.02	0.744	MRAH-G1d/MRAL-KT0 Y436L (antibody, human IgG1, kappa, copies: 2 + 2) heavy: QVQLQESGPGLVRPSQTLSLTCTVSGYSITSDHAWSWVRQPPGRGLEWIGYISYSGITTYNPSLKSRVTMLRDTSKNQFSLRLSSVTAADTAVYYCARSLARTTAMDYWGQGSLVTVSS[human IgG1 constant region with Y436L (EU numbers) omitted here] light: DIQMTQSPSSLSASVGDRVTITCRASQDISSYLNWYQQKPGKAPKLLIYYTSRLHSGVPSRFSGSGSGTDFTFTISSLQPEDIATYYCQQGNTLPYTFGQGTKVEIKRTVAAPSVFIFPPSDEQLKSGTASVVCLLNNFYPREAKVQWKVDNALQSGNSQESVTEQDSKDSTYSLSSTLTLSKADYEKHKVYACEVTHQGLSSPVTKSFNRGEC
